Values joined by “and” are separate entries in the source; they are usually repeats but may differ in a detail not shown here. Equal values may be shown once. Where a name gives a salt, the structure may show the parent alone. The full ranking holds about 2,000 compounds; the median of “fractional viability relative to vehicle” is about 0.92, and the lowest 2% start at about 0.11. The list shows a part of the results.
Test system: TYKNU
Experiment: fractional viability relative to vehicle; TYKNU is a high-grade serous ovarian cancer line; higher = less growth inhibition
Settings: 72 h, genotype: OPA1 knockout (sgOPA1 #2)
How it was run: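 Drug treatment lasted 72 h, with cells grown at 37 °C in 5% CO2 in RPMI 1640 supplemented with 10% FBS. Beforehand, TYKNU control cells or their lentiCRISPRv2 knockout derivatives had been seeded at 500 cells per well into drug-stamped 384-well plates carrying a ~2100-compound library at 2 or 10 μM, in duplicate. Viability came from Cell Titer Glo luminescence, with averaged duplicate treatment wells normalised to duplicate control wells in the same plate position.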

Row | SMILES | fractional viability (2uM) | fractional viability (10uM)
1 | COc1ccc([C@@H]2CC(=O)c3c(O)cc(O)cc3O2)cc1O [Hesperetin] | 0.924 | 1.12
2 | Nc1c(CC(=O)O)cccc1C(=O)c1ccccc1 [Amfenac Sodium Monohydrate] | 1.04 | 0.997
3 | CC(C)(C)C(=O)Nc1ccc2c(c1)C(=O)C(=O)c1ccccc1-2 | 0.181 | 0.0604
4 | NC(=O)c1ccc(N(C(N)=O)c2c(F)cccc2F)nc1-c1ccc(F)cc1F | 1.19 | 1.05
5 | CC(=O)Oc1ccccc1C(=O)Nc1ncc([N+](=O)[O-])s1 [Nitazoxanide] | 1.24 | 0.682
6 | CCCc1cc(C)[nH]c(=O)c1CNC(=O)c1cc(-c2ccc(N3CCN(C(C)C)CC3)nc2)cc2c1cnn2C(C)C | 0.975 | 0.234
7 | Cc1c(C(=O)Nc2ccc(Oc3ccnc4[nH]cc(-c5ccccc5)c34)c(F)c2)c(=O)n(-c2ccc(F)cc2)n1C | 0.85 | 0.741
8 | CN[C@@H](C)C(=O)N[C@H](C(=O)N1CCC[C@H]1c1nc(C(=O)c2ccc(F)cc2)cs1)C1CCCCC1 | 0.719 | 0.643
9 | COc1nccc(-c2c(-c3ccc(F)cc3)ncn2C2CCC(O)CC2)n1 (centres undefined) | 0.999 | 0.786
10 | COc1c(C)c(C(=O)c2ccc(N)c(C(=O)O)c2)n2ccccc12 | 0.889 | 1.04
11 | COc1ccc2c(c1)CCC1C2CCC2(C)C(NCCCCCCN3C(=O)C=CC3=O)CCC12 (centres undefined) | 0.747 | 0.738
12 | COc1ccc(-c2ccc3c(N4CCOC[C@@H]4C)nc(N4CCOC[C@@H]4C)nc3n2)cc1CO | 0.325 | 0.376
13 | CC(C)C[C@H](NP(=O)(O)O[C@@H]1O[C@@H](C)[C@H](O)[C@@H](O)[C@H]1O)C(=O)N[C@@H](Cc1c[nH]c2ccccc12)C(=O)O [Phosphoramidon Disodium Salt] | 0.899 | 0.879
14 | O=C(NC[C@H]1CN(c2ccc(N3CCOCC3=O)cc2)C(=O)O1)c1ccc(Cl)s1 [Rivaroxaban] | 1.11 | 1.04
15 | C[C@@H]1C[C@H]2[C@@H]3C[C@H](F)C4=CC(=O)C=C[C@]4(C)[C@@]3(F)[C@@H](O)C[C@]2(C)[C@@]1(O)C(=O)CO [Flumethasone] | 1.1 | 0.852
16 | COC(=O)c1ccc2c(c1)nc(NC(=O)c1ccccc1)n2CCCc1ccccc1 | 0.792 | 0.709
17 | CN1CCN(Cc2ccc(Nc3ncc(Cl)c(Nc4ccccc4S(=O)(=O)N(C)C)n3)cc2)CC1 | 0.451 | 0.421
18 | c1ccc(NCc2ccc(CNc3ccccn3)cc2)nc1 | 1.07 | 0.852
19 | Cc1nnc(C(=O)NC(C)(C)c2nc(C(=O)NCc3ccc(F)cc3)c(O)c(=O)n2C)o1 [Raltegravir (MK-0518)] | 1.12 | 0.874
20 | N=C(NCCCCCCNC(=N)NC(=N)Nc1ccc(Cl)cc1)NC(=N)Nc1ccc(Cl)cc1 [Chlorhexidine HCl] | 0.986 | 0.359
21 | COc1c2occc2cc2ccc(=O)oc12 [Methoxsalen] | 1.24 | 1.04
22 | CC(C)CC(N)=O [Isovaleramide] | 0.947 | 1.04
23 | CN1CCN(C2=Nc3ccccc3Oc3ccc(Cl)cc32)CC1 [Loxapine Succinate] | 1.16 | 0.852

Row | SMILES | fractional viability (2uM) | fractional viability (10uM)
24 | CCOC(=O)[C@@H](N)Cc1ccc(-c2cc(O[C@H](c3ccc(Cl)cc3-n3ccc(C)n3)C(F)(F)F)nc(N)n2)cc1 [Telotristat Etiprate (LX 1606 Hippurate)] | 0.935 | 0.335
25 | O=C(Nc1cccc(Cl)c1)c1ccccn1 | 1.19 | 1.02
26 | Clc1ccc(CCC(Cn2ccnc2)Sc2c(Cl)cccc2Cl)cc1 (centres undefined) [Butoconazole nitrate] | 1.09 | 0.872
27 | C[C@@]1(C(=O)Nc2ccc(F)nc2)CCCN1c1nc(Nc2cc(C3CC3)n[nH]2)c2cccn2n1 | 0.877 | 0.499
28 | CN(C)C(=O)Nc1cccc(-c2ccc(N(C)C)cc2)c1 [Atglistatin] | 0.904 | 0.794
29 | N#Cc1ccc(C(c2ccc(C#N)cc2)n2cncn2)cc1 [Letrozole] | 1.15 | 0.978
30 | C=C1CC[C@H](O)C/C1=C/C=C1\CCC[C@]2(C)[C@@H]([C@H](C)CCCC(C)C)CC[C@@H]12 [Vitamin D3] | 1.06 | 0.555
31 | CC(C)(O)[C@H]1CC[C@@](C)([C@H]2[C@@H](O)C[C@@]3(C)[C@@H]4C[C@H](O[C@@H]5O[C@H](CO)[C@@H](O)[C@H](O)[C@H]5O)[C@H]5C(C)(C)[C@@H](O[C@@H]6OC[C@@H](O)[C@H](O)[C@H]6O)CC[C@@]56C[C@@]46CC[C@]23C)O1 [Astragaloside A] | 0.751 | 0.76
32 | CC(=O)S[C@@H]1CC2=CC(=O)CC[C@]2(C)[C@H]2CC[C@@]3(C)[C@@H](CC[C@@]34CCC(=O)O4)[C@H]12 [Spironolactone] | 0.979 | 0.899
33 | C#Cc1cccc(Nc2ncnc3cc(OC)c(OCCCCCCC(=O)NO)cc23)c1 | 0.404 | 0.212
34 | CCCc1cc(C(N)=S)ccn1 [Protionamide] | 1.17 | 0.922
35 | COc1cccc2c1c(O)c(C(=O)N(C)c1ccc(C(F)(F)F)cc1)c(=O)n2C [Tasquinimod] | 0.878 | 0.86
36 | COc1cc2c(Nc3ccc(NC(=O)c4ccccc4)cc3)ncnc2cc1OCCCN1CCOCC1 | 1.02 | 0.584
37 | CC(=O)Nc1ccc(C(=O)Nc2ccccc2N)cc1 [CI994 (Tacedinaline)] | 0.755 | 0.434
38 | O=C(O)[C@]1(Cc2cccc(Nc3nccs3)n2)CC[C@@H](Oc2cccc(Cl)c2F)CC1 | 0.727 | 0.623
39 | CN1CCC(=C2c3ccccc3C=Cc3ccccc32)CC1 [Cyproheptadine HCl] | 0.991 | 0.873
40 | CO[C@H]1/C=C/O[C@@]2(C)Oc3c(C)c(O)c4c(O)c(c(/C=N/N5CCN(C6CCCC6)CC5)c(O)c4c3C2=O)NC(=O)/C(C)=C\C=C\[C@H](C)[C@H](O)[C@@H](C)[C@@H](O)[C@@H](C)[C@H](OC(C)=O)[C@@H]1C [Rifapentine] | 1.04 | 0.781
41 | N=C(N)NC(=N)NCCc1ccccc1 [Phenformin HCl] | 1.01 | 0.94
42 | C[C@H]1O[C@H](O[C@H]2[C@H](O)[C@@H](O)[C@@H](O[C@H]3[C@H](O)[C@@H](O)C(O)O[C@@H]3CO)O[C@@H]2CO)[C@H](O)[C@@H](O)[C@@H]1N[C@H]1C=C(CO)[C@@H](O)[C@H](O)[C@H]1O (some centres undefined) [Acarbose] | 1.23 | 0.948
43 | C[C@@H](Oc1ccc2[nH]nc(/C=C/c3cnn(CCO)c3)c2c1)c1c(Cl)cncc1Cl | 0.589 | 0.277
44 | CC[C@H]1[C@@H](O)[C@@H]2[C@H](CC[C@]3(C)[C@@H]([C@H](C)CCC(=O)O)CC[C@@H]23)[C@@]2(C)CC[C@@H](O)C[C@@H]12 [Obeticholic Acid] | 0.836 | 0.916
45 | CNC1CCCN(c2c(F)cc3c(=O)c(C(=O)O)cn(C4CC4)c3c2OC)C1 (centres undefined) [Balofloxacin] | 1 | 1.04
46 | O=C(NC[C@H](O)CN1CCc2ccccc2C1)c1cc(NC2COC2)ncn1 | 0.875 | 0.845

Row | SMILES | fractional viability (2uM) | fractional viability (10uM)
47 | COc1cc2ncnc(Sc3nnc(C)s3)c2cc1OC | 0.789 | 0.16
48 | O=C1NC(=O)C(c2cnc3ccccn23)=C1c1cn2c3c(cc(F)cc13)CN(C(=O)N1CCCCC1)CC2 | 0.58 | 0.68
49 | Cc1ccc(S(=O)(=O)c2ccc([N+](=O)[O-])o2)cc1 | 0.0667 | 0.0291
50 | NCCc1c[nH]cn1 [Histamine 2HCl] | 0.923 | 0.835
51 | OC(Cn1cncn1)(Cn1cncn1)c1ccc(F)cc1F [Fluconazole] | 1.04 | 0.921
52 | CC(=O)Nc1cccc(-n2c(=O)n(C3CC3)c(=O)c3c(Nc4ccc(I)cc4F)n(C)c(=O)c(C)c32)c1 | 0.379 | 0.38
53 | C[C@@H](NCCCc1cccc(C(F)(F)F)c1)c1cccc2ccccc12 [Cinacalcet HCl] | 1.04 | 0.83
54 | Nc1[nH]cnc2ncnc1-2 [Adenine HCl] | 0.979 | 0.867
55 | CC(C)(C)c1cnc(CSc2cnc(NC(=O)C3CCNCC3)s2)o1 | 0.573 | 0.517
56 | CC(C)c1c(C(=O)Nc2ccccc2)c(-c2ccccc2)c(-c2ccc(F)cc2)n1CC[C@@H](O)C[C@@H](O)CC(=O)O [Atorvastatin Calcium] | 0.968 | 0.649
57 | CCN[C@H]1CN(CCCOC)S(=O)(=O)c2sc(S(N)(=O)=O)cc21 [Brinzolamide] | 0.978 | 0.803
58 | COC(=O)Nc1nc2cc(C(=O)c3cccs3)ccc2[nH]1 [Nocodazole] | 0.48 | 0.479
59 | COc1cc(Br)c(Nc2nc(-c3c(C)nc4ncccn34)cs2)c(Br)c1 | 0.404 and 0.408 | 0.319 and 0.35
60 | COc1cc2c(Oc3ccc4[nH]c(C)cc4c3F)ncnc2cc1OCCCN1CCCC1 [Cediranib (AZD2171)] | 1.1 | 0.181
61 | CC(=O)O[C@]1(C(C)=O)CC[C@H]2[C@@H]3C[C@H](C)C4=CC(=O)CC[C@]4(C)[C@H]3CC[C@@]21C [Medroxyprogesterone acetate] | 1.13 | 0.808
62 | O=C(O)c1cc(-c2ccccc2)nc2ccccc12 [Cinchophen] | 0.976 | 0.926
63 | Nc1nc2n[nH]nc2c(=O)[nH]1 [Azaguanine-8] | 1.51 | 0.999
64 | CN(C)c1nc(N(C)C)nc(N(C)C)n1 [Altretamine] | 1.05 | 1.06
65 | CCCNCC(O)COc1ccccc1C(=O)CCc1ccccc1 (centres undefined) [Propafenone HCl] | 1.01 | 0.869
66 | NC(=O)C(c1ccccc1)(c1ccccc1)[C@@H]1CCN(CCc2ccc3c(c2)CCO3)C1 [Darifenacin HBr] | 0.802 | 0.704
67 | O=C1c2ccc(Nc3ccc(F)cc3F)cc2CCc2ccc(OC[C@H](O)CO)cc21 [Skepinone-L] | 1.19 | 0.679
